Reference: the supplement of paper PMC3334620
In all, about 33,000 sequences were measured (“E-score (-0.5 to 0.5)”: median about -0.01, highest 2% from about 0.26 on). This is one part of the list.

Target: Ste12 (UniProt P13574)
Assay: PBM E-score (8-mer binding enrichment) (E-score (-0.5 to 0.5)); higher = stronger / more preferred TF binding; most listed sequences are background and not binding sites
Conditions: protein concentration: 200 nM; construct: GST-DNA-binding domain
Outline: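 E-scores (a modified Wilcoxon-Mann-Whitney statistic) were assigned by the Universal PBM Analysis Suite to every ungapped eight-base word pooled with its reverse complement. The input came from universal all-10-mer Agilent arrays made double-stranded by primer extension and probed with GST-tagged yeast transcription factors at about 100-200 nM. Fluorescent anti-GST detected bound protein, and masliner normalised the scans.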

Sequence | PBM E-score
AAGTTCTC | -0.0252
AGTAAGCG | -0.102
TATGCTAA | 0.0339
CCACCGTC | -0.045
CGGATCAC | 0.0938
GCCTTACA | -0.0389
CCATCCGC | -0.0933
AAGTTTGT | 0.2
AAGGATTG | -0.1
ACATCGTG | 0.0408
AGCACCAA | -0.0159
AACCGATC | -0.047
GTCACATA | 0.183
CATCTCAC | -0.00516
CTCTCTCA | -0.02
CTCCGGCC | -0.232
CACACACC | -0.0676
GAGCCGAA | 0.0586
AAGGGAAT | -0.111
ACTGACAC | -0.0722
ATTCCACC | 0.113
ATGCAGGC | -0.0785
CGATCCAC | -0.165
AAAGAGGC | -0.229
TGGCGTAA | -0.158

Sequence | PBM E-score
CCTCAAGG | -0.26
CAAGGCAG | -0.0826
AGGCGTGA | -0.0487
ACGAGGAC | -0.156
CGCACTAA | -0.00824
CGTATCGC | 0.0593
TACAGCCA | -0.121
TTCCACAA | 0.238
CGTAATAA | 0.186
GCCCCCAC | -0.181
CTCCTCTC | -0.161
ATCGAAGA | 0.0371
ATTTCGCC | 0.121
CGTTTCTA | 0.166
ATCATGAG | 0.0432
GATACCTA | 0.169
CGGTTGCA | -0.159
ACGAATCG | -0.0508
CGGAGCCG | -0.0642
GATACAGA | 0.118
AGCGAACG | -0.157
AGCTACAC | -0.0604
CGGCTGAC | 0.0126
CTTCTCGC | 0.015
TCCAGTAA | -0.172

Sequence | PBM E-score
TACTAGCA | -0.014
AGTGTTTG | 0.245
CTTAGGAC | -0.03
CCCACGAA | 0.168
CGCCGTGC | -0.0554
AATCCTGG | 0.0608
GATAGGTA | -0.125
GCTCGCGA | 0.195
ACATTTAG | -0.0629
TCGATCGA | -0.0177
ACGATGTC | -0.136
AGCGTTAT | 0.0698
CCAAGATA | 0.0411
AACTGGCC | -0.0398
AAACCCTT | 0.0361
GATATCTA | 0.115
CATCGCCA | 0.0243
GTTCTCTA | -0.0407
CGCTTAGA | -0.0481
GAAGGTGC | -0.0511
CATGCCAG | 0.0469
CTGTTGGC | -0.0696
AGTTCTAT | 0.0382
ATGCGGAG | -0.302
ACAACATG | 0.0765

Sequence | PBM E-score
ACGAGTGA | 1e-05
TCGTTAGA | -0.0655
GTAACTTA | 0.073
GGTTTCAC | 0.386
GGCTGGGA | -0.0243
GCCTCTCA | -0.248
CATCCCGA | -0.00385
GTATAAAA | 0.241
ACACCTAT | 0.0295
TGTTAGAA | 0.158
AGACGTAC | -0.0648
AACCTCTC | -0.0548
AACGGCCG | 0.146
CCCAGGCA | -0.104
CGATACTC | -0.0354
CCGTGAGG | -0.125
CGTACCAC | -0.0892
GCTACCCC | -0.221
AACACCTA | 0.0605
CACGCAAC | 0.0403
ACGGTCAC | -0.114
CCCATGCC | -0.0852
CAGCAGCC | -0.0193
GACACACA | 0.137
ATCCGCCC | 0.0265

Sequence | PBM E-score
ACGCCACG | -0.182
CCGCCAGA | 0.0807
CAGAAGGG | -0.17
CGCGCGAC | 0.111
AAAGGGGA | -0.0964
TCCGAACA | 0.0115
ACACTGTG | 0.0657
ACACGCAC | -0.255
TCTTAGCA | -0.0313
AGTAAGTG | -0.0738
AGTGACCA | -0.0297
GGCGCGAA | 0.0543
GTGAACAC | -0.108
ATATATTA | 0.185
ATGGACGG | -0.00997
AGGCAAGG | -0.273
CGGCAGGC | -0.151
ACATATAC | 0.0437
ACTGGGAT | 0.00537
CGATGGAG | -0.0853
CGTACGAC | -0.194
CAGATCAC | -0.17
GGAGTCGA | 0.0751
CGTAATTA | -0.0592
GTGATTCA | 0.0424

Sequence | PBM E-score
GGTAGTTA | -0.0199
ACGCTGGG | -0.238
CGGCGGGC | 0.021
CAAATACC | 0.185
CCGCTGCC | -0.163
ATGCGAGA | -0.0269
ACGACGCC | -0.118
AAACCTTA | 0.247
AAACTATA | 0.141
ACTACGTG | -0.283
CATCAAAG | 0.0187
AGCTAAAG | -0.0673
GGCTGCGA | 0.196
CAGTCCGC | -0.178
CACCGTGG | -0.0761
AGCAAATG | -0.0505
GGCATTAC | 0.0694
TAGAGACA | -0.064
ATCCTGTA | -0.0955
GAGATCTC | -0.14
GGCTTTAA | 0.0191
CTGCGTCC | -0.0984
CAATCGGG | -0.0207
ATACTAAA | 0.214
AGCCAAAC | 0.207

Sequence | PBM E-score
CGAATCTC | -0.00505
ATCGTGAG | -0.243
CGCGTCAA | 0.0957
CTACAGAG | -0.0766
GGAATATA | 0.215
GCACGCAA | -0.0539
CGCCTAGC | -0.0616
CGCCTACA | 0.0882
AGTAACAA | 0.0502
GGAACGGA | 0.031
AAAAGTGA | 0.267
GAGTCATA | 0.0777
ATATTTAC | 0.219
ATGGTGGC | 0.0316
CACGAGGA | -0.183
CCGAGCTA | 0.0483
CATGCAAG | 0.0792
AGATGAGC | -0.103
TATGTAGA | 0.0155
CGCCAGGC | -0.0821
CTTTTCCA | 0.0778
AGTACTCG | -0.0202
